Experimental data from PubChem BioAssay AID686970 (National Center for Advancing Translational Sciences (NCATS), 2013).
Hit rate of the full screen: of about 360,000 compounds, about 6,000 (1.7%) were called active. The inconclusive results got no clear call from the source; some entries with a clear call stand among them for comparison. Calls come from the whole dose curve; as a rule, active = well fitted cell-killing curve with a large enough effect; inconclusive = small, poorly fitted or top-dose-only effect, or effect the other way; inactive = flat fitted curve, though single readings scatter. Potencies of inconclusive entries are left out as doubtful fits.

Test: qHTS for induction of synthetic lethality in tumor cells producing 2HG: qHTS for the HT-1080-NT fibrosarcoma cell line;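 note: NT is the 2HG producing partner of a matched IDH1 knockdown line; nearly all actives have a fitted effect of over 55% in size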;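 for activity, negative = less viability: 0% = DMSO-treated cells and -100% = media-only wells without cells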
Conditions: HT-1080-NT fibrosarcoma viability, CellTiter-Glo ATP luminescence, 48 h; activity, negative = less viability: at 46.1 µM (top of the series) unless noted
Outline: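 HT-1080-NT; 750 cells/well; 5% FBS RPMI; 48 h compound, 37 degrees C; CellTiter-Glo luminescence; curve fitting and curve-class assignment.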
Potency is the fitted concentration of half-maximal effect; tags give direction and shape of the fitted curve.

Compound	Potency	activity, negative = less viability
O=C(/C=C/c1ccccc1)c1cc(Br)ccc(=O)c1O	active: 18.4 µM	–
CC1(C(=O)NS(=O)(=O)c2cccc(OC(F)F)c2)CCN1C(=O)Cc1ccsc1 (configuration not stated)	inconclusive [rising, single point]	–
COc1ccc2sc(-c3ccccc3OC)c(-c3ccc(OCCN(C)C)cc3)c2c1	inconclusive [cytotoxic, single point]	–
CCN(C(=O)COC(=O)CCc1c[nH]c2ccccc12)c1c(N)n(Cc2ccccc2)c(=O)[nH]c1=O	inactive	–
CSc1nc(=O)n2cc(C)ccc2n1	inactive	–
CCCCC(CC)C(=O)Oc1ccc(O)c(C(C)(C)C)c1 (configuration not stated)	active: 16.4 µM	–
COc1ccc(C(=O)C(CCC(CNC(C)(C)C)C(=O)c2ccc(OC)cc2)CNC(C)(C)C)cc1 (configuration not stated)	inconclusive [cytotoxic, partial curve]	–
COc1cccc(Nc2nc(C(N)c3ccccc3)cs2)n1 (configuration not stated)	inconclusive [cytotoxic, partial curve]	–
O=c1c2ccccc2nc(N/N=C/c2c(O)ccc3ccccc23)n1O	inconclusive [cytotoxic, full curve]	–
c1cncc(N=c2scc(-c3cccc4ccccc34)n2CCCn2ccnc2)c1	inconclusive [cytotoxic, single point]	–
CCc1ccc(/C=C2\SC(=S)N(CCCC(=O)Nc3ccc(C(=O)O)cc3)C2=O)cc1	inactive	–
CCn1cc(C(=O)NCc2ccco2)c(=O)c2cc(S(=O)(=O)N3CC(C)CC(C)C3)ccc21 (configuration not stated)	active: 4.11 µM	–
CCCCC(=O)N(C)c1c(C)nc2ccc(C(=O)N(C)CCN(C)C)cn12	inconclusive [rising, partial curve]	–
COc1ccccc1NCC(=O)N/N=C/c1c(O)ccc2ccccc12	active: 14.6 µM	–
Cc1cc(C)nc(SCC(=O)OCC(=O)N(C)c2c(N)n(Cc3ccccc3)c(=O)[nH]c2=O)n1	inactive	–
O=C(NNS(=O)(=O)c1ccccc1[N+](=O)[O-])c1cc2ccccc2cc1O	inconclusive [cytotoxic, single point]	–
CC(C)(C)c1ccc(S(=O)(=O)/N=C2\C=C(NS(=O)(=O)c3ccccc3)C(=O)c3ccccc32)cc1	active: 23.1 µM	–
O=c1cc(-c2ccccc2)[nH]c2cc(F)ccc12	active: 2.59 µM	–
CC(C)c1cc(Cn2c3ccccc3c(=O)n2C(C)Cn2cc(-c3ccc(C(C)(C)C)cc3)nn2)on1 (configuration not stated)	inconclusive [cytotoxic, single point]	–
CC(=O)Nc1cccc(-c2ccnc3c2CC(C)(C(=O)Nc2cccc(Oc4ccccc4)c2)O3)c1 (configuration not stated)	inconclusive [cytotoxic, single point]	–
Cc1cc(N/N=C2/CCCc3ccccc32)nc2ccccc12	inconclusive [cytotoxic, single point]	–
O=C(Nc1nnc(-c2ccccc2Cl)o1)c1ccc(S(=O)(=O)N2CCCCCC2)cc1	active: 4.11 µM	–
Cc1cc(-n2c(C)cc(C(=O)CSc3nncn3C(C)C)c2C)no1	inactive	–
OC(C#Cc1ccccc1)(c1ccccc1)c1ccccc1	inconclusive [cytotoxic, single point]	–

Compound	Potency	activity, negative = less viability
CCCN(CCC)C(=S)NC(=O)c1ccc(Cl)cc1Cl	active: 3.16 µM	–
Cn1cnnc1SCC(=O)Nc1ccc(F)cc1	inconclusive [rising, partial curve, poor fit]	–
CC(C)NC(=S)N1CCN(S(=O)(=O)c2cccc(C(F)(F)F)c2)CC1	inactive	–
Cc1ccc(C(=O)c2ncc[nH]2)cc1	inactive	–
O=S(=O)(NCC(c1ccccc1)N1CCNCC1)c1ccc(Cl)cc1 (configuration not stated)	inconclusive [cytotoxic, single point]	–
CCCCCC(=O)Nc1ccc(N2CCN(C(=O)c3ccccc3)CC2)cc1	inactive	–
COc1ccccc1NS(=O)(=O)c1ccc(C(=O)Nc2ncccc2O)cc1	inactive	–
COc1cccc(CNCCc2c[nH]c3ccccc23)c1OCc1ccc(F)cc1	active: 20.6 µM	–
CC1CCN(Cc2c(C(=O)N/N=C/c3ccccc3O)nnn2-c2nonc2N)CC1	inconclusive [cytotoxic, full curve]	–
COC(=O)c1ccc(COc2cccn3c(N(C)C(=O)CCC4CCCC4)c(C)nc23)cc1	inconclusive [cytotoxic, single point]	–
N#Cc1c(C(F)(F)F)cc(-c2ccccc2)nc1SCCN1CCOCC1	inactive	–
CCOc1ccc(NC2=CC(=O)C(=O)c3ccccc32)cc1	inconclusive [cytotoxic, single point]	–
Cc1[nH]c2ccc(C(=O)OC(C)C(=O)NC3CCCCC3C)cc2c1C (configuration not stated)	inconclusive [cytotoxic, single point]	–
c1cn2c(-c3ccoc3)cncc2n1	inactive	–
COC1=CC(=O)c2ccccc2C1=O	active: 11.6 µM	–
CCOC(=O)C1(C)NC(c2ccc(N(C)C)cc2)C2C(=O)N(c3ccc(OC)cc3)C(=O)C21 (configuration not stated)	inconclusive [rising, full curve, poor fit]	–
CC(=O)[C@@]1(O)C(C)CC2C3C=C(C)C4=Cc5c(cnn5-c5ccccc5)C[C@]4(C)C3C(O)C[C@@]21C (some centres not stated)	active: 4.61 µM	–
COc1ccc(OC)c(-n2c(-c3cccc(S(=O)(=O)N(C)C)c3)n[nH]c2=S)c1	inconclusive [rising, partial curve]	–
Cc1occc1C(=O)O/N=C(\N)c1ccccc1	inconclusive [cytotoxic, single point]	–
CCN(CC)CCNC(=O)CCc1c(C)nc2c(c(C)nn2-c2ccc(C)cc2)c1C	active: 18.4 µM	–
Cc1cc(NC(=O)CCNS(=O)(=O)c2cc(Br)cnc2N)ccc1Br	inconclusive [cytotoxic, single point]	–
CCCN1C(=O)c2cc(C(=O)Nc3cccc(C(C)=O)c3)ccc2C1Nc1cccc(C(C)=O)c1 (configuration not stated)	inconclusive [cytotoxic, single point]	–
CN(CCOc1ccccc1)C(=O)C1CCC(=O)N(CCc2ccc(Cl)cc2)C1 (configuration not stated)	inactive	–
COc1ccccc1/C=C/C(=O)c1c2c(c(C)[nH]c1=O)CCCC2	active: 4.47 µM	–

Compound	Potency	activity, negative = less viability
NC(=O)CSc1nnc(NC(=O)c2ccc3ccccc3c2)s1	inactive	–
Cc1nccn1CC(O)COc1ccc(Cl)cc1Cl (configuration not stated)	inconclusive [cytotoxic, single point]	–
COc1cccc(C(=O)CC(=O)C(=O)Nc2cccc([N+](=O)[O-])c2C)c1	inconclusive [cytotoxic, single point]	–
COc1ccc(C(=O)NN(C)c2nc(C(F)(F)F)nc3ccccc23)cc1	inconclusive [cytotoxic, full curve]	–
CCN1C(=O)C(CC(=O)Nc2ccc(F)cc2)N(Cc2ccc3c(c2)OCO3)C1=S (configuration not stated)	–	inconclusive: -34.4% [cytotoxic]
CCOc1ccc(CN2CCN(Cc3[nH]c4ccc(OC)cc4c3C)CC2CCO)cc1 (configuration not stated)	inconclusive [cytotoxic, single point]	–
COc1ccc(C(=O)Nc2ccc(C(=O)c3ccccc3)cc2)cc1	–	inconclusive: -17.7% [cytotoxic]
N#Cc1c(SCc2ccccc2)sc(C(=O)c2ccccc2)c1N	inconclusive [cytotoxic, single point]	–
C=CCc1cccc(OC)c1OCCOCCNCCO	inactive	–
COc1ccc(C(C)=O)cc1CC1(C)C(=O)Nc2ccc(OC(F)(F)F)cc21 (configuration not stated)	inactive	–
CN(C)c1ncnc2c1ncn2C1OC(CO)C(O)C1O (configuration not stated)	active: 13 µM	–
O=[N+]([O-])c1ccc(CSc2ncnc3c2ncn3[C@@H]2O[C@H](CO)[C@@H](O)[C@H]2O)cc1	inactive	–
Cc1cc(C(=O)N/N=C/c2ccc([N+](=O)[O-])cc2)c2ccccc2n1	active: 18.4 µM	–
O=c1c2ccccc2nc2n1CCc1ccc(Br)cc1-2	inconclusive [rising, partial curve]	–
Cc1ccc(-n2c(Cc3ccccc3)n[nH]c2=S)cc1	inconclusive [cytotoxic, single point]	–
O=C(NNC(=O)c1cnccn1)c1ccc(Cl)c(Cl)c1	inconclusive [cytotoxic, full curve]	–
CCCN(CC(=O)Nc1cccc(Br)c1)CC(=O)Nc1ccc(F)c(F)c1F	inconclusive [cytotoxic, single point]	–
COCc1cccc(-c2csc(C(O)c3ccccc3)n2)c1 (configuration not stated)	inconclusive [cytotoxic, partial curve, poor fit]	–
CCOC(=O)c1ccc(NC(=O)COc2ccc(CNCCO)cc2OCC)cc1	inconclusive [cytotoxic, partial curve]	–
COc1ccccc1[C@@H]1C(c2cccc(C)c2)=NN(c2ccc(Br)cc2)[C@H]1C(=O)N1CCOC1=O	inactive	–
Cc1ccc(NC(=O)COC(=O)c2nn(-c3ccc(Cl)cc3)cc2O)cc1	inconclusive [cytotoxic, single point]	–
Brc1ccc(-c2nc(-c3ccccn3)no2)o1	inconclusive [cytotoxic, single point]	–
COc1ccccc1-c1cc(-c2ccccc2)nc(SC(C(N)=O)c2ccccc2)c1C#N (configuration not stated)	inconclusive [cytotoxic, single point]	–
CSCCC(C(=O)Nc1c(C)cccc1C)N1CCC(Cc2ccccc2)CC1 (configuration not stated)	inconclusive [cytotoxic, single point]	–
